# Measured values taken from patent publication US11366114B2, “Genetically encoded fluorescent sensors for detecting ligand bias and intracellular signaling through cAMP pathways” (MONTANA MOLECULAR LLC, priority 2013, dated 2022).
# B1: EcpG10 G2N-G1C: cAMP sensor; SEQID 26 in Table 1, SEQ ID NO: 27 in Table 3 (protein)
# chain: MVAAHAAHSSSSAEWIACLDKRPLERSSEDVDIIFTRLKEVKAFEKFHPNLLHQICLCGYYENLEKGITLFRQGDIGTNWYAVLAGSLDVKVSETSSHQDAVTICTLGIGTAFGESILDNTPRHATIVTRESSELLRIEQKDFKALWEKYRQYMAGLLAPPYGVMETGSNNDRIPDKENTPLIEPHVPLRPANTITKVPSEKILRAGKILRNAILSRAPHMIRDRKYHLKTYRQCCVGTELVDWMMQQTPCVHSRTQAVGMWQVLLEDGVLNHVDQEHHFQDKYLFYRFLDDEHEDAPLPTEEEKKECDEELQDTMLLLSQMGPDAHMRMILRKPPGQRTVDDLEIIYEELLHIKALSHLSTTVKRELAGVLIFESHAKGGTVLFNQGEEGTSWYIILKGSVNVVIYGKGVVCTLHEGDDFGKLALVNDAPRAASIVLREDNCHFLRVDKEDFNRILRDVEANTVRLKEHDQDVLVLEKVPAGNRASNQGNSQPQQKYTVMSGTPEKILEHFLETIRLEATLNEATDSVLNDFIMMHCVFMPNTQLCPALVAHYHAQPSQGTEQEKMDYALNNKRRVIRLVLQWAAMYGDLLQEDDVSMAFLEEFYVSVSDDARMIAALKEQLPELEKIVKQISEDAKAPQKKHKVLLQQFNTGDERAQKRQPIRGSDEVLFKVYCMDPTYTTIRVPVATSVKEVISAVADKLGSGEGLIIVKMSSGGEKVVLKPNDVSVFMTLTINGRLFACPREQFDSLTPLPEQEGPTVGTVGTFELMSSKDLAYQMTIYDWELFNCVHELELIYHTFGRHNFKKTTANLDLFLRRFNEIQFWVVTEICLCSQLSKRVQLLKKFIKIAAHCKEYKNLNSFFAIVMGLSNVAVSRLALTWEKLPSKFKKFYAEFESLMDPSRNHRAYRLTVAKLEPPLIPFMPLLIKDMTFTHEGNKTFIDNLVNFEKMRMIANTARTVRYYRSQPFNPDAAQANKNHQDVRSYVRQLNVIDNQRTLSQMSHRLEPRRPLENVYIKADKQKNGIKANFKIRHNIEDGGVQLAYHYQQNTPIGDGPVLLPDNHYLSVQSILSKDPNEKRDHMVLLEFVTAAGITLGMDELYKGGTGGSMVSKGEELFTGVVPIQVELDGDVNGHKFSVSGEGEGDATYGKLTLKFICTTGKLPVPWPTLVTTLTYGVQCFSRYPDHMKQHDFFKSAMPEGYIQERTIFFKDDGNYKTRAEVKFEGDTLVNRIELKGIDFKEDGNILGHKLEYNTRREYKLVVLGSGGVGKSALTVQFVQGIFVEKYDPTIEDSYRKQVEVDAQQCMLEILDTAGTEQFTAMRDLYMKNGQGFALVYSITAQSTFNDLQDLREQILRVKDTDDVPMILVGNKCDLEDERVVGKEQGQNLARQWNNCAFLESSAKSKINVNEIFYDLVRQINRKTPVPGKARKKSSCQLL
# B2: EcpG10 G2-RasGEF-T2: Best Upward Sensor; SEQ ID NO: 1 in Tables 1 and 3 (protein)
# chain: MGSNNDRIPDKENTPLIEPHVPLRPANTITKVPSEKILRAGKILRNAILSRAPHMIRDRKYHLKTYRQCCVGTELVDWMMQQTPCVHSRTQAVGMWQVLLEDGVLNHVDQEHHFQDKYLFYRFLDDEHEDAPLPTEEEKKECDEELQDTMLLLSQMGPDAHMRMILRKPPGQRTVDDLEIIYEELLHIKALSHLSTTVKRELAGVLIFESHAKGGTVLFNQGEEGTSWYIILKGSVNVVIYGKGVVCTLHEGDDFGKLALVNDAPRAASIVLREDNCHFLRVDKEDFNRILRLVSHNVYIKADKQKNGIKANFKIRHNIEDGGVQLAYHYQQNTPIGDGPVLLPDNHYLSVQSILSKDPNEKRDHMVLLEFVTAAGITLGMDELYKGGTGGSMVSKGEELFTGVVPIQVELDGDVNGHKFSVSGEGEGDATYGKLTLKFICTTGKLPVPWPTLVTTLTYGVQCFSRYPDHMKQHDFFKSAMPEGYIQERTIFFKDDGNYKTRAEVKFEGDTLVNRIELKGIDFKEDGNILGHKLEYNFNNPDVEANTVRLKEHDQDVLVLEKVPAGNRASNQGNSQPQQKYTVMSGTPEKILEHFLETIRLEATLNEATDSVLNDFIMMHCVFMPNTQLCPALVAHYHAQPSQGTEQEKMDYALNNKRRVIRLVLQWAAMYGDLLQEDDVSMAFLEEFYVSVSDDARMIAALKEQLPELEKIVKQISEDAKAPQKKHKVLLQQFNTGDE
# B3: Library 2-1 G12: cAMP sensor protein; SEQ ID NO: 2 in Tables 1 and 3 (protein)
# chain: MVAAHAAHSSSSAEWIACLDKRPLERSSEDVDIIFTRLKEVKAFEKFHPNLLHQICLCGYYENLEKGITLFRQGDIGTNWYAVLAGSLDVKVSETSSHQDAVTICTLGIGTAFGESILDNTPRHATIVTRESSELLRIEQKDFKALWEKYRQYMAGLLAPPYGVMETGSNNDRIPDKENTPLIEPHVPLRPANTITKVPSEKILRAGKILRNAILSRAPHMIRDRKYHLKTYRQCCVGTELVDWMMQQTPCVHSRTQAVGMWQVLLEDGVLNHVDQEHHFQDKYLFYRFLDDEHEDAPLPTEEEKKECDEELQDTMLLLSQMGPDAHMRMILRKPPGQRTVDDLEIIYEELLHIKALSHLSTTVKRELAGVLIFESHAKGGTVLFNQGEEGTSWYIILKGSVNVVIYGKGVVCTLHEGDDFGKLALVNDAPRAASIVLREDNCHFLRVDKEDFNRILRDVEALENVYIKADKQKNGIKANFKIRHNIEDGGVQLAYHYQQNTPIGDGPVLLPDNHYLSVQSILSKDPNEKRDHMVLLEFVTAAGITLGMDELYKGGTGGSMVSKGEELFTGVVPIQVELDGDVNGHKFSVSGEGEGDATYGKLTLKFICTTGKLPVPWPTLVTTLTYGVQCFSRYPDHMKQHDFFKSAMPEGYIQERTIFFKDDGNYKTRAEVKFEGDTLVNRIELKGIDFKEDGNILGHKLEYNTRKEDFNRILRDVEANTVRLKEHDQDVLVLEKVPAGNRASNQGNSQPQQKYTVMSGTPEKILEHFLETIRLEATLNEATDSVLNDFIMMHCVFMPNTQLCPALVAHYHAQPSQGTEQEKMDYALNNKRRVIRLVLQWAAMYGDLLQEDDVSMAFLEEFYVSVSDDARMIAALKEQLPELEKIVKQISEDAKAPQKKHKVLLQQFNTGDERAQKRQPIRGSDEVLFKVYCMDPTYTTIRVPVATSVKEVISAVADKLGSGEGLIIVKMSSGGEKVVLKPNDVSVFMTLTINGRLFACPREQFDSLTPLPEQEGPTVGTVGTFELMSSKDLAYQMTIYDWELFNCVHELELIYHTFGRHNFKKTTANLDLFLRRFNEIQFWVVTEICLCSQLSKRVQLLKKFIKIAAHCKEYKNLNSFFAIVMGLSNVAVSRLALTWEKLPSKFKKFYAEFESLMDPSRNHRAYRLTVAKLEPPLIPFMPLLIKDMTFTHEGNKTFIDNLVNFEKMRMIANTARTVRYYRSQPFNPDAAQANKNHQDVRSYVRQLNVIDNQRTLSQMSHRLEPRRP
# B4: Lib2-1 G12-RasGEF-T2: cAMP sensor protein; SEQ ID NO: 3 in Tables 1 and 3 (protein)
# chain: MGSNNDRIPDKENTPLIEPHVPLRPANTITKVPSEKILRAGKILRNAILSRAPHMIRDRKYHLKTYRQCCVGTELVDWMMQQTPCVHSRTQAVGMWQVLLEDGVLNHVDQEHHFQDKYLFYRFLDDEHEDAPLPTEEEKKECDEELQDTMLLLSQMGPDAHMRMILRKPPGQRTVDDLEIIYEELLHIKALSHLSTTVKRELAGVLIFESHAKGGTVLFNQGEEGTSWYIILKGSVNVVIYGKGVVCTLHEGDDFGKLALVNDAPRAASIVLREDNCHFLRVDKEDFNRILRDVEALENVYIKADKQKNGIKANFKIRHNIEDGGVQLAYHYQQNTPIGDGPVLLPDNHYLSVQSILSKDPNEKRDHMVLLEFVTAAGITLGMDELYKGGTGGSMVSKGEELFTGVVPIQVELDGDVNGHKFSVSGEGEGDATYGKLTLKFICTTGKLPVPWPTLVTTLTYGVQCFSRYPDHMKQHDFFKSAMPEGYIQERTIFFKDDGNYKTRAEVKFEGDTLVNRIELKGIDFKEDGNILGHKLEYNTRKEDFNRILRDVEANTVRLKEHDQDVLVLEKVPAGNRASNQGNSQPQQKYTVMSGTPEKILEHFLETIRLEATLNEATDSVLNDFIMMHCVFMPNTQLCPALVAHYHAQPSQGTEQEKMDYALNNKRRVIRLVLQWAAMYGDLLQEDDVSMAFLEEFYVSVSDDARMIAALKEQLPELEKIVKQISEDAKAPQKKHKVLLQQFNTGDE
# System: cAMP
# Experiment: Fluorescence response of cAMP sensors to isoproterenol in HEK 293 cells co-expressing the beta adrenergic receptor
# Type: cell-based, human
# Conditions: in response to isoproternol
# Summary of the method: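 Green cAMP-sensor fluorescence was measured at 25 °C in DPBS, by microscopy or plate reader (488/20 nm excitation, 530/20 nm emission), upon addition of isoproterenol, forskolin, IBMX or DMSO. Cells were HEK 293 or 293T transiently expressing sensor plus beta adrenergic receptor for 24-48 h.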
row,Molecule,Relative Change in Fluorescence
1,B1,−28%
2,B2,110%
3,B3,73%
4,B4,74%
